Data reported in PubChem BioAssay AID1159614 (National Center for Advancing Translational Sciences (NCATS), 2016).
About 65 (0.1%) of roughly 45,000 compounds were called active. The call rests on the fitted dose curve; in most records, active means well fitted activation curve with a large enough effect; inconclusive means small, poorly fitted or top-dose-only effect; inactive means no such curve, though single readings can be large or run the other way. The list shows a part of the results.

These molecules were tested against Galactocerebrosidase (Homo sapiens) (UniProt P54803) (assay: A Novel Cell-Based Assay to Identify Small Molecules for B -Galactocerebrosidase). Conditions: 145M-Twi-hGALC-G270D cells (Twitcher mouse brain line with human GALC G270D), HMU-beta-Gal fluorescence, 48 h; series mostly up to 57.5 µM; activation: at the top concentration.
In short: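 Live 145M-Twi cells (Twitcher mouse brain-derived, GALC-null) stably expressing human GALC-G270D, with a wild-type GALC line, were compound-treated. Residual GALC activity was then read as fluorescence from 0.1 mM final HMU-β-gal at pH 5.2; higher signal means activation.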
Further: nearly all actives have a fitted effect of over 65% in size.
Potency means the concentration at half of the fitted maximal effect.
Wherever activation is given: 0% is about no effect.

Chain of UniProt P54803 (P54803 whole entry, looked up): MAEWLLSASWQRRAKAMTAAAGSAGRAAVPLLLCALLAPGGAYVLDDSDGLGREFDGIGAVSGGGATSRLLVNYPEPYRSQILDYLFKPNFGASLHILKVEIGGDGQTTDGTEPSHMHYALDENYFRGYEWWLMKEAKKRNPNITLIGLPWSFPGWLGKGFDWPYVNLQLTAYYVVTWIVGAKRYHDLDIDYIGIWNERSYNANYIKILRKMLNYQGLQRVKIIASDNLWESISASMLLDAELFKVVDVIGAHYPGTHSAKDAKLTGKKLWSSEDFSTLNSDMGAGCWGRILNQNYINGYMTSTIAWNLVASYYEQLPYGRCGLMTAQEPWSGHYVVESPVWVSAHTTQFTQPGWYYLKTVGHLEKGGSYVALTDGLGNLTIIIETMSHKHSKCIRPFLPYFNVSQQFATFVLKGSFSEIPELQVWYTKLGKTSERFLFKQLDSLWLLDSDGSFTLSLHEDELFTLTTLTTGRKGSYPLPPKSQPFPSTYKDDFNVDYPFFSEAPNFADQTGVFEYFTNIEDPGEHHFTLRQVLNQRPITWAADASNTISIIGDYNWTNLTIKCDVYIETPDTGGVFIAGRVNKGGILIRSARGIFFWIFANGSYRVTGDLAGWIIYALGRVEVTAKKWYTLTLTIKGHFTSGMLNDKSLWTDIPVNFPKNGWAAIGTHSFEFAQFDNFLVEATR

SMILES | activation | Potency
COc1cc(Br)cc2cc(S(=O)(=O)c3ccccc3)c(=O)oc12 | inactive: -14.1% | –
Cc1cccc(NC(=O)CSc2nc3ccc(NC(=O)CCc4ccccc4)cc3s2)c1 | inactive: -9.56% | –
Cc1ccc(-c2nc(CS(=O)(=O)CC(=O)N3CCN(c4ccccc4)CC3)c(C)o2)cc1 | inactive: -22.3% | –
COc1cccc(NCc2nnc3n2CCCCC3)c1 | inactive: -14.4% | –
Cc1ccc(-c2noc(-c3cccnc3N(C)Cc3ccc(Cl)cc3)n2)cc1 | inactive: -14.4% | –
CCCSCCCNC(=O)c1sc2nc(C)cc(C)c2c1-n1cccc1 | inactive: -23.4% | –
CCOc1ccc(CNCCSc2nnnn2C)cc1 | inactive: -12.9% | –
CCc1ccc(C(=O)c2cn(CC(=O)Nc3cc(OC)cc(OC)c3)c3ccc(CC)cc3c2=O)cc1 | inactive: -14.5% | –
CCc1cccc(C)c1Nc1c(-c2ccc(N(C)C)cc2)nc2cnccn12 | inactive: -10.8% | –
COc1cccc(CNC(=O)c2ccc3nc(CCc4ccccc4)oc3c2)c1OC | inactive: -16.9% | –
Cc1ccc(-n2nc(C)c3c(C)c(CCC(=O)NCc4ccc(Cl)cc4)c(C)nc32)cc1 | inactive: -17.9% | –
COc1ccc(-c2nc3ccccc3s2)cc1NC(=O)c1cccc(F)c1 | inactive: -20.6% | –
CCCOc1ccc(CN2C(=O)C(=O)c3cccc(C)c32)cc1 | inactive: -13.5% | –
Cc1ccc(NC(=O)c2ccc(N(Cc3ccccc3)S(C)(=O)=O)cc2)cc1 | inactive: 4.26% | –
CC(C)c1ccc(C2=NC(c3ccncc3)=Nc3ccc(F)cc3N2)cc1 | inactive: -17.2% | –
O=C(Nc1nc2c(s1)CCCC2)c1ccccc1F | inactive: -19% | –
CCC1CCc2c(sc(NC(=O)C3c4ccccc4Oc4ccccc43)c2C(=O)OC)C1 (centres undefined) | inactive: -1.04% | –
CCOC(=O)N1CCC(NC(=O)c2ccc3c(c2)N(Cc2ccc(Cl)cc2)C(=O)c2ccccc2S3(=O)=O)CC1 | inactive: -1.6% | –
Cc1ccc(C(=O)c2oc3ccccc3c2NC(=O)C(C)Oc2ccccc2Cl)cc1 (centres undefined) | inactive: -0.713% | –
CCCn1cc(S(=O)(=O)c2ccc(CC)cc2)c(=O)c2cc(F)c(N3CCN(C)CC3)cc21 | inactive: -17.8% | –
CCOc1ccc(Cn2c(CNS(=O)(=O)c3ccc(CC)cc3)nc3cccnc32)cc1 | inactive: -2.57% | –
CCOC(=O)c1c(S(=O)(=O)N2CCN(c3cccc(C(F)(F)F)c3)CC2)c(C)n(C)c1C | inactive: -9.59% | –
CNC(=O)c1ccc2nc(Cc3ccccc3)oc2c1 | inactive: -12% | –
COc1ccc(OC)c(CCNC(=O)c2nn(C)c3c2CSc2ccccc2-3)c1 | inactive: -7.09% | –
O=C(Nc1ccc(Br)cc1F)c1cc2nc(-c3ccco3)cc(C(F)(F)Cl)n2n1 | inactive: -0.456% | –

SMILES | activation | Potency
Cc1cc(Br)ccc1NC(=O)CCNS(=O)(=O)c1cccc2nonc12 | inactive: -12.7% | –
COc1ccc(NC(=O)c2c(NCc3cccs3)sc3c2CCCCC3)c(OC)c1 | inactive: -13.6% | –
CCOc1ccc(OCC)c(Nc2nc3ccc(C(=O)c4ccccc4)cc3n3cnnc23)c1 | inactive: -16.6% | –
COc1ccc2c(c1)CC(C(=O)Nc1ccc(OC)cc1OC)CO2 (centres undefined) | inactive: -9.07% | –
O=S(=O)(c1ccc(OC(F)(F)F)cc1)N1CCC(c2nc3ccccc3s2)CC1 | inactive: -2.13% | –
CCCOc1ccc2nc(NC(=O)OC)[nH]c2c1 | inactive: -7.49% | –
O=C(Cn1cc(SCc2ccccc2F)c2ccccc21)N1CCCC1 | inactive: -13.7% | –
Cn1c(=O)c2cc(C(=O)Nc3cccc(C#N)c3)sc2c2ccccc21 | inactive: -11.4% | –
COc1ccc(C2=NN(CC(=O)NCCc3ccccc3)C(=O)CC2)cc1 | inactive: -19.6% | –
CCC(=O)Nc1ccccc1-c1nc2ccccc2n(CC(=O)Nc2ccc(C)c(C)c2)c1=O | inactive: 0.803% | –
CCCCOc1ccc(OCCCN2CCOCC2)cc1 | inactive: -5.92% | –
CCc1ccc(NC(=O)C2CCN(S(=O)(=O)c3c(C)noc3C)CC2)cc1 | inactive: -18.7% | –
O=C(NC1CCCC1)c1ccc(CSc2nc3cccnc3n2Cc2ccccc2)cc1 | inactive: -6.76% | –
O=C(NCc1ccccc1)c1ccc2c(c1)N(Cc1ccc(F)cc1)CCS2 | inactive: -5.32% | –
COc1ccc(CCNC(=O)CSCc2nc(-c3cccc(C)c3)oc2C)cc1OC | inactive: -9.12% | –
COc1ccc(Cl)cc1NC(=O)c1sc2nc(-c3ccc(OC)c(OC)c3)ccc2c1N | – | active: 11.2 µM
COC(=O)c1ccc(NC(=O)NC(C)c2c(-n3cccc3)sc(C)c2C)cc1 (centres undefined) | inactive: -9.55% | –
CCCNC(=O)C1CCC(Cn2c(=O)c3sccc3n(CC(=O)N3CCCC3)c2=O)CC1 (centres undefined) | inactive: -6.49% | –
CCc1cccc(C)c1NC(=O)CN1C(=O)c2ccccc2Sc2ncccc21 | inactive: -9.36% | –
COC(=O)c1sc2cccc(F)c2c1S(=O)(=O)Nc1cc(C)c(Cl)cc1OC | inactive: -8.96% | –
O=C(COc1ccc(Cl)cc1)Nc1ccc(-c2nc3cc(Cl)ccc3o2)c(O)c1 | inactive: -7.42% | –
CCc1ccc(S(=O)(=O)c2nnn3c2nc(N2CCC(C(N)=O)CC2)c2cc(Cl)ccc23)cc1 | inactive: -0.197% | –
Cc1c(C(=O)Nc2cccc(C#N)c2)sc2nc3n(c(=O)c12)CCCCC3 | inactive: -12.2% | –
COc1ccc(CNC(=O)c2cc3oc4ccccc4c3n2C)cc1OC | inactive: -20.8% | –
CCCNC(=O)CN1C(=O)c2c(c3ccccc3n2C)C1c1ccc(OC)cc1 (centres undefined) | inactive: -2.92% | –

SMILES | activation | Potency
CN[C@@H]1[C@@H](O)[C@@H](O[C@@H]2[C@H](O)[C@H](O[C@H]3OC(CN)=CC[C@H]3N)[C@@H](N)C[C@H]2N)OCC1(C)O (some centres undefined) | inactive: -13.7% | –
CCCC(=O)n1nc(-c2cccnc2)nc1NCc1ccccc1 | inactive: -15.4% | –
CCc1ccccc1NC(=O)Cn1c(=O)n(CCc2ccccc2)c(=O)c2ccccc21 | inactive: -6.36% | –
CCOc1ccc(NC(=O)CCC(=O)N2CCSc3ccccc32)cc1 | inactive: -17.3% | –
COc1ccc(Cn2c(CCC(=O)Nc3ccc(OC)c(Cl)c3)nc3cccnc32)cc1 | inactive: -22.5% | –
COc1ccc(N2CCN(C(=O)Nc3ccccc3Cl)CC2)cc1 | inactive: -1.14% | –
Clc1ccccc1-c1nnc(SCc2nc(-c3ccccc3)no2)n1-c1ccccc1 | inactive: -16.1% | –
O=C(NCCc1ccc(Cl)cc1)c1ccc(CSCc2ccc(Cl)cc2)o1 | inactive: -14.5% | –
CCOC(=O)N1CCN(S(=O)(=O)N2CCCC(C(=O)NCc3ccc(OC)cc3OC)C2)CC1 (centres undefined) | inactive: 1.33% | –
O=c1oc2ccc(Cl)cc2cc1-c1cn2c(n1)sc1ccccc12 | inactive: -8.92% | –
CCCCNC(=O)CCSc1nc(-c2ccc3c(c2)OCO3)cc(C(F)(F)F)n1 | inactive: -15.3% | –
COc1cccc(NC(=O)CSC2=Nc3ccccc3C3=NC(CC(=O)NCc4ccccc4OC)C(=O)N23)c1 (centres undefined) | inactive: 3.44% | –
COc1ccc(NS(=O)(=O)c2c(C)nc3scc(C)n3c2=O)cc1 | inactive: -13% | –
O=C(Nc1ccc2nc(SCC(=O)N3CCOCC3)sc2c1)c1cccc(F)c1 | inactive: -18.1% | –
Cc1cccc(OCC(=O)N(Cc2ccc(N(C)C)cc2)Cc2ccco2)c1C | inactive: -24% | –
COc1ccc(C2C=C(c3ccccc3)Nc3nc(NC(=O)/C=C/c4ccccc4OC)nn32)cc1 (centres undefined) | inactive: -4.21% | –
Cc1ccnc2nc(NC(=O)c3ccccc3Cl)nn12 | inactive: -16.7% | –
OC[C@@H](O)[C@H](O)[C@H](O)[C@@H](O)CO | – | inactive
CCOc1ccc(NC(=O)c2c(NCc3cccs3)sc3c2CCCCC3)cc1 | inactive: -7.54% | –
COC(=O)c1scc(-c2ccccc2)c1S(=O)(=O)Nc1ccc(C)c(Cl)c1 | inactive: -10.4% | –
CC(=O)c1cc(-c2ccccc2)n(CCC(=O)NC2CCCCC2)c1C | inactive: -10.8% | –
CC12CN3CC(c4ccccc4)(CN(C1)C3c1ccc(Cl)cc1)C2=O (centres undefined) | inactive: -0.982% | –
O=C(NCC1CCCCN1)c1cc(OCC(F)(F)F)ccc1OCC(F)(F)F (centres undefined) | inactive: -8.79% | –
COc1ccccc1CNC(=O)c1ccc(CS(=O)c2ccccc2Cl)o1 (centres undefined) | inactive: -11% | –
CC1CCc2cc(F)cc3c(=O)c(C(=O)O)cn1c23 (centres undefined) | inactive: -7.96% | –

SMILES | activation | Potency
CCc1ccc(S(=O)(=O)c2nnn3c2nc(NC(C)C)c2cc(Cl)ccc23)cc1 | inactive: -18.9% | –
Cc1cccc(N(CC(=O)N(C)Cc2ccccc2)S(=O)(=O)c2ccccc2)c1C | inactive: -15.6% | –
CCC(=O)N1CCc2cc(Br)cc(S(=O)(=O)N3CCCC(C(=O)Nc4ccc(OC)cc4OC)C3)c21 (centres undefined) | inactive: 9.14% | –
COc1ccc(NC(=O)C(=O)NCc2ccco2)c(OC)c1 | inactive: -13.1% | –
COc1ccc(N2CCN(c3oc(/C=C/c4ccccc4OC)nc3C#N)CC2)cc1 | inactive: -10.7% | –
O=C(Nc1ccc(C(=O)OCc2cc(=O)n3ccsc3n2)cc1)c1cccc(F)c1 | inactive: -26.1% | –
COc1ccc(Nc2c3c(nc4ccc(NC(=O)c5cc(Cl)ccc5OC)cc24)CCCC3)cc1OC | inactive: 0.362% | –
Cc1cc(C)cc(NC(=O)N2CCC(N3CCN(Cc4ccccc4)C(=O)C3=O)CC2)c1 | inactive: -6.21% | –
CCOc1ccc(CC(=O)Nc2c(C(=O)c3ccc(F)cc3)oc3ccc(Cl)cc23)cc1OCC | inactive: -11.1% | –
COc1ccc(OC)c(CNC(=O)C2CCN(S(=O)(=O)c3ccc4[nH]c(=O)oc4c3)CC2)c1 | inactive: -8.02% | –
CC(C)Oc1ccc(CNC(=O)c2cccc(NC(=O)c3nsc4ccccc34)c2)cc1 | inactive: -11.2% | –
COc1ccc(N2Cc3cccc(C(=O)Nc4cccc(F)c4)c3C2=O)cc1 | inactive: -10.2% | –
Cc1ccc(CNC(=O)c2c[nH]n3c(=O)c(Cc4ccc(F)cc4Cl)c(C)nc23)cc1 | inactive: -9.58% | –
Cc1nnc(N2CCN(c3cccc(C(F)(F)F)c3)CC2)c2c1nnn2Cc1ccccc1 | inactive: -9.54% | –
Cn1c(C(=O)N2CCC(C(=O)N3CCN(c4ccccc4)CC3)CC2)cc2sccc21 | inactive: -9.06% | –
Cc1noc2ncnc(NCc3ccc(Cl)cc3)c12 | inactive: -12.2% | –
Cc1cc(NC(=O)C2CCCN(S(=O)(=O)c3cn(C)cn3)C2)ccc1Br (centres undefined) | inactive: -7.93% | –
CN(C)c1ccc(C(=O)Nc2ccc(-c3nc4ccccc4o3)cc2)cc1 | inactive: -3.55% | –
Cc1ccc(-c2cc(NC(=O)C(C)Oc3ccccc3F)on2)cc1 (centres undefined) | inactive: -13.6% | –
Cc1ccc(CCNC(=O)c2cc3n(n2)CCCN(Cc2ccc(C)cc2)C3=O)cc1 | inactive: -22.2% | –
Cc1cccc(Cn2c(COc3ccc(Cl)cc3)nc3ccccc32)c1 | inactive: -10.9% | –
CCc1nnc(SCC(=O)Nc2cc(OC)ccc2OC)nc1CC | inactive: -10.7% | –
CCN(Cc1ccccc1)C(=O)c1cc2c(=O)[nH]c3ccc(C)cc3c2s1 | inactive: -35.3% | –
Cc1ccc(NC(=O)N2CCN(c3ccc(Cl)c(Cl)c3)CC2)cc1 | inactive: 4.19% | –
